Results published in publication PMC11904782.
These are yes or no findings as the source states them, for the method shown. In cells and extracts the contact can be indirect. Some entries that bind do so weakly or less than the wild type.

The chains behind the UniProt entries cited, without tags or fusion partners. Where a name states a change or a piece, a line headed by the entry shows the natural chain unless it says otherwise. Residues count along the entry.
UniProt O14497: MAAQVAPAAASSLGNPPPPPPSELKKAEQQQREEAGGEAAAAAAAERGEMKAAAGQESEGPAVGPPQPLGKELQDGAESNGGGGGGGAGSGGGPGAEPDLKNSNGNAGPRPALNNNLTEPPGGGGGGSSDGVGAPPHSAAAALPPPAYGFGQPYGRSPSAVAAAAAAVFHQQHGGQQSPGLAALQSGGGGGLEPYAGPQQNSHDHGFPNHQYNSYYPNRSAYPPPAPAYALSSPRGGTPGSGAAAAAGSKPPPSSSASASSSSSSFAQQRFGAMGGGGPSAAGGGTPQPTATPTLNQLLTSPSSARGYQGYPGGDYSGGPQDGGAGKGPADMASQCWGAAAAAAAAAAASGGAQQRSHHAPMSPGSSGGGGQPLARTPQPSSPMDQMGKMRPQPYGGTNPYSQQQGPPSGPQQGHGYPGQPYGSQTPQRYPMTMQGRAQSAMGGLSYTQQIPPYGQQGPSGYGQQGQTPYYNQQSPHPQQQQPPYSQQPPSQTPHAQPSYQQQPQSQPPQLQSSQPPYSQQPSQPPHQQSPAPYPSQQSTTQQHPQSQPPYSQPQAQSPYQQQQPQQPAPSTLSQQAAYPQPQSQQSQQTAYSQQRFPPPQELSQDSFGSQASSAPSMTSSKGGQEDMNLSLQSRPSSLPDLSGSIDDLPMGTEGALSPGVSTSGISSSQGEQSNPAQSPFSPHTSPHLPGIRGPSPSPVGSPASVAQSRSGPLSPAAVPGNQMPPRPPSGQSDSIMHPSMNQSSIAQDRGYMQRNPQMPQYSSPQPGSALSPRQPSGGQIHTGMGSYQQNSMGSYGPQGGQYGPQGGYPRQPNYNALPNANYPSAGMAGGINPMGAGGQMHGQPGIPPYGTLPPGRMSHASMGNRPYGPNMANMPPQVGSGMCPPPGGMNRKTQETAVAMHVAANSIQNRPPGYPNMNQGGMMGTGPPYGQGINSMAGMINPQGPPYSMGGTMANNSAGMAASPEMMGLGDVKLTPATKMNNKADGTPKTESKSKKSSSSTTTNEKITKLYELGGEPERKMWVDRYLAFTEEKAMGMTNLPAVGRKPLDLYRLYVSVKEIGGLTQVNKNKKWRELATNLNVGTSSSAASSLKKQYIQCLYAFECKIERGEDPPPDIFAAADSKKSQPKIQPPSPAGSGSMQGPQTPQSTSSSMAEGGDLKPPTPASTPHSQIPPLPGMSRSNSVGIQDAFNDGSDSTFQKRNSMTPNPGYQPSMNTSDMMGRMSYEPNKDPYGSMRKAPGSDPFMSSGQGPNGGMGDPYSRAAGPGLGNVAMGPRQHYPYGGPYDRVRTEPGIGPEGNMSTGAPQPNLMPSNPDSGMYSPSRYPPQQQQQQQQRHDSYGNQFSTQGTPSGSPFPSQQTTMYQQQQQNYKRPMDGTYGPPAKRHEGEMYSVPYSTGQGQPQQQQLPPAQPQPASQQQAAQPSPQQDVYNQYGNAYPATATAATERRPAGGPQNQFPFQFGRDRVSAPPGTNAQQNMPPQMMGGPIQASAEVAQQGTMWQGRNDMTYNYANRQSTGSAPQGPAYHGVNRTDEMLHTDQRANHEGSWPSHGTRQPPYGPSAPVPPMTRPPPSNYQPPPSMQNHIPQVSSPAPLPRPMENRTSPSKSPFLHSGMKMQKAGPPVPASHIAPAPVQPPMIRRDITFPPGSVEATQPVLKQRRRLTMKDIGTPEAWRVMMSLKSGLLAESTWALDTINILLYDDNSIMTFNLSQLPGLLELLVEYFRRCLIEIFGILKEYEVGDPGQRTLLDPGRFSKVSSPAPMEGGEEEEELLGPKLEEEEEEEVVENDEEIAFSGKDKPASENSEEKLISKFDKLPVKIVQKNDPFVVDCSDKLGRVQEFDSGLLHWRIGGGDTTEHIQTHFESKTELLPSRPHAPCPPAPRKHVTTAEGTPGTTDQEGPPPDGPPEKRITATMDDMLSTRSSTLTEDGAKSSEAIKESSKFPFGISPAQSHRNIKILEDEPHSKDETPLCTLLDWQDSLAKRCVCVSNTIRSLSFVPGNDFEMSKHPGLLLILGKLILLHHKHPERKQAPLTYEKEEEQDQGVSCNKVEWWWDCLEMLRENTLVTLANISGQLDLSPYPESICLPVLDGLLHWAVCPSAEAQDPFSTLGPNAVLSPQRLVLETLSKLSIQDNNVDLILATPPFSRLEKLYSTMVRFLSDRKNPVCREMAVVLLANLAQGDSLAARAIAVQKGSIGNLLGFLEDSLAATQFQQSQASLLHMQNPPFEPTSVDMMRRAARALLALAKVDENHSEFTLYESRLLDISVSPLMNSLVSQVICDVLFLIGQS
GST–ARID1A–ARM domain (1914–2285 aa): residues 1914-2285 of O14497
UniProt Q8NFD5: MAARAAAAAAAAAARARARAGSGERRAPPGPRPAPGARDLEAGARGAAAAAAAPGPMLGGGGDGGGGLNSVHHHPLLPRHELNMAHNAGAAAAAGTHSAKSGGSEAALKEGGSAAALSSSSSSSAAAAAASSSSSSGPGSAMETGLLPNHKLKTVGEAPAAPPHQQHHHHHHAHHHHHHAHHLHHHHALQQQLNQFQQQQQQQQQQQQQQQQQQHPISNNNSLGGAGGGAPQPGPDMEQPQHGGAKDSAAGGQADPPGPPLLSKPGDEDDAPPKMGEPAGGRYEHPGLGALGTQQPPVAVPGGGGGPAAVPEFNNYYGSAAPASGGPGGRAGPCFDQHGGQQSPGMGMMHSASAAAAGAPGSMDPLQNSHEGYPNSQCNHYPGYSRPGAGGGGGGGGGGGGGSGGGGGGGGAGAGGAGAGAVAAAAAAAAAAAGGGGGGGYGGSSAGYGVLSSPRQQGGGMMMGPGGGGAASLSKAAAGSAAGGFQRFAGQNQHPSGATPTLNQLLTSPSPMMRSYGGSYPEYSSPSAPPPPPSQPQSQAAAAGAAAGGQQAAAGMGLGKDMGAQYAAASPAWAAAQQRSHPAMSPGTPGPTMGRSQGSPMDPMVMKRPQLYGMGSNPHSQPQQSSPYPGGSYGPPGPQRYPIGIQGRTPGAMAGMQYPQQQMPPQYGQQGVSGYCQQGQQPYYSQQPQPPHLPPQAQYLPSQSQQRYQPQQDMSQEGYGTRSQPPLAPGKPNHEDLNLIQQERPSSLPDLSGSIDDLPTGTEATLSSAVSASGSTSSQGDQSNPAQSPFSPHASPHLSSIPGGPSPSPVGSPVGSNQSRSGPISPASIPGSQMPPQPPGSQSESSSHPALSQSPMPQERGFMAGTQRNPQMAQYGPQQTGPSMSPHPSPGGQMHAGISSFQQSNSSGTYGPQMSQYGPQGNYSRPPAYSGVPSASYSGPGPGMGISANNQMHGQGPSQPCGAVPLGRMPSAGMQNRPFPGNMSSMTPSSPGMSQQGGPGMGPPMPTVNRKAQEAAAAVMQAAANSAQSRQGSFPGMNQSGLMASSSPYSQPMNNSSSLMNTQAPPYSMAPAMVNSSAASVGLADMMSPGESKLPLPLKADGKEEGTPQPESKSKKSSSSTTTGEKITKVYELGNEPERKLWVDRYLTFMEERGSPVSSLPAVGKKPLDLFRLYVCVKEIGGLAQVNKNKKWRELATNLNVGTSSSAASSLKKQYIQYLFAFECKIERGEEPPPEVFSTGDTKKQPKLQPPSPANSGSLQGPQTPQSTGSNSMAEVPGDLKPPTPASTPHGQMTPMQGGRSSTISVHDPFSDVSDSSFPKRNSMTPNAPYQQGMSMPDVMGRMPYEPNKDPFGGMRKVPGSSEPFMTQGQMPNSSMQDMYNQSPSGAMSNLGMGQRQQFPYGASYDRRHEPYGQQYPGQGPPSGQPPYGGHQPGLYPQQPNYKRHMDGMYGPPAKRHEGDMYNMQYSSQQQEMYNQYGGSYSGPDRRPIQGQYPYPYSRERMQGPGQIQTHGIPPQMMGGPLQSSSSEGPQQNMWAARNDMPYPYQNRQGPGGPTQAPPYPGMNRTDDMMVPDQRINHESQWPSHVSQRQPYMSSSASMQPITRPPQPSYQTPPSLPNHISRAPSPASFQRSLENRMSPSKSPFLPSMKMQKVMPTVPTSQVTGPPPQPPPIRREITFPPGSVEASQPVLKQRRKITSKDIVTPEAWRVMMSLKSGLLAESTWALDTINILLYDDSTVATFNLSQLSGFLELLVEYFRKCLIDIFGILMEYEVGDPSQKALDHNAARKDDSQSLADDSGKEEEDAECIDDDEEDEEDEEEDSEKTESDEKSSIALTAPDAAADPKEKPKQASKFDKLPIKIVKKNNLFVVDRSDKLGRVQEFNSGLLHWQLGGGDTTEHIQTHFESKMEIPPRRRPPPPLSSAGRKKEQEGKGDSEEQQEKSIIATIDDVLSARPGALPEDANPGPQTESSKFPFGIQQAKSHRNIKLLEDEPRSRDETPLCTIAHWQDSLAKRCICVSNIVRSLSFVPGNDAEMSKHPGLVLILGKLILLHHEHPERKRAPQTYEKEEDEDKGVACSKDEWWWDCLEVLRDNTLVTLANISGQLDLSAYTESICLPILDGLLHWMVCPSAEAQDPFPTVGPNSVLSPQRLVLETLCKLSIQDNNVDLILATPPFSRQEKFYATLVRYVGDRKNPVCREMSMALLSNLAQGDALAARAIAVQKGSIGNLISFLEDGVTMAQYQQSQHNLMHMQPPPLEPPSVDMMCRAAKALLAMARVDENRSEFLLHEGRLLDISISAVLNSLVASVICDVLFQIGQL

Tests used:
[1] = target: AT-interacting domain-rich protein 1A (ARID1A), endogenous (human (endogenous in HEK293 and HCT116)) (UniProt O14497); assay: co-IP; endogenous ARID1A or ARID1B immunoprecipitated with anti-ARID1A or anti-ARID1B from HEK293 nuclear extract; partners by immunoblot
[2] = target: ARID1B, endogenous (human (endogenous in HEK293)) (UniProt Q8NFD5); assay: as above
[3] = target: GST–ARID1A–ARM domain (1914–2285 aa) (UniProt O14497); assay: pull-down; GST–ARID1A mutants or GST–ARID1B–ARM on Glutathione Sepharose beads incubated with HEK293 (methods: 293T) nuclear extract for 4 h at 4°C with RNase A and DNase I; bound proteins by immunoblot; only the target purified

Measured: binding

B1: DNA polymerase λ (POLL) (protein, UniProt Q9UGP5 1-575)
chain: MDPRGILKAFPKRQKIHADASSKVLAKIPRREEGEEAEEWLSSLRAHVVRTGIGRARAELFEKQIVQHGGQLCPAQGPGVTHIVVDEGMDYERALRLLRLPQLPPGAQLVKSAWLSLCLQERRLVDVAGFSIFIPSRYLDHPQPSKAEQDASIPPGTHEALLQTALSPPPPPTRPVSPPQKAKEAPNTQAQPISDDEASDGEETQVSAADLEALISGHYPTSLEGDCEPSPAPAVLDKWVCAQPSSQKATNHNLHITEKLEVLAKAYSVQGDKWRALGYAKAINALKSFHKPVTSYQEACSIPGIGKRMAEKIIEILESGHLRKLDHISESVPVLELFSNIWGAGTKTAQMWYQQGFRSLEDIRSQASLTTQQAIGLKHYSDFLERMPREEATEIEQTVQKAAQAFNSGLLCVACGSYRRGKATCGDVDVLITHPDGRSHRGIFSRLLDSLRQEGFLTDDLVSQEENGQQQKYLGVCRLPGPGRRHRRLDIIVVPYSEFACALLYFTGSAHFNRSMRALAKTKGMSLSEHALSTAVVRNTHGCKVGPGRVLPTPTEKDVFRLLGLPYREPAERDW
binds: all assays above
